Key:
[1] = test system: H460 cells; conditions: H460, 1×IC50; sodium valproate (or medium) 24 h then seliciclib (or medium) 24 h; FIG. 6
[2] = test system: Mcl-1, XIAP, Bcl-2, survivin, cleaved PARP; conditions: H460, 1× or 1.5×IC50, 24 h; FIG. 4
[3] = test system: survivin, Bcl-2, Mcl-1, XIAP, caspase 3 and 9; conditions: H460, 1×IC50, time course; FIG. 5

Compound | percentage of cells in sub-G1 (apoptotic cells) [1] | Bcl-2 protein level [2] | survivin protein level [2] | Bcl-2 level [3] | survivin level [3]
CC[C@H](CO)Nc1nc(NCc2ccccc2)c2ncn(C(C)C)c2n1 [seliciclib, 2-(1-R-hydroxymethylpropylamino)-6-benzylamino-9-isopropylpurine] | small increase |  |  |  | 
CCCC(=O)[O-].[Na+] [Butyrate, sodium butyrate] |  | reduces | reduces | reduces | reduces

Source: patent US20090306098A1 (Cyclacel Limited, priority 2005, published 2009)
